# Reference: the supplement of paper PMC8728848
# Some of the results follow.
# Legend:
# Assay in all cases: glycan array binding signal (z-score within array); higher = stronger binding
# Settings in all cases: glycan notation: IUPAC condensed, linker removed; mutation: Y228A
# [1] = biological target: Gal(b1-4)GalNAc(b1-3)[Fuc(a1-2)]Gal(b1-4)GlcNAc
# Outline: (§1)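 Glycan array binding is given as a within-array Z-score, which can be read as non-binding when negative. The arrays, 3228 of them, came from the Consortium for Functional Glycomics database and were retained only where the protein sequence was available. Z-scores were averaged across arrays of the same protein sequence at different concentrations or buffers and across linkers.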
# [2] = biological target: Gal(b1-4)Glc
# Outline: as §1
# [3] = biological target: Gal(b1-4)Glc6S
# Outline: as §1
# [4] = biological target: Gal(b1-4)GlcNAc
# Outline: as §1
# [5] = biological target: Gal(b1-4)GlcNAc(a1-6)Gal(b1-4)GlcNAc
# Outline: as §1
# [6] = biological target: Gal(b1-4)GlcNAc(b1-2)Man
# Outline: as §1
# [7] = biological target: Gal(b1-4)GlcNAc(b1-2)Man(a1-3)Man(b1-4)GlcNAc(b1-4)GlcNAc
# Outline: as §1
# [8] = biological target: Gal(b1-4)GlcNAc(b1-2)Man(a1-3)[Gal(b1-4)GlcNAc(b1-2)Man(a1-6)]Man(b1-4)GlcNAc(b1-4)GlcNAc
# Outline: as §1
# [9] = biological target: Gal(b1-4)GlcNAc(b1-2)Man(a1-3)[Gal(b1-4)GlcNAc(b1-2)Man(a1-6)]Man(b1-4)GlcNAc(b1-4)[Fuc(a1-6)]GlcNAc
# Outline: as §1
# [10] = biological target: Gal(b1-4)GlcNAc(b1-2)Man(a1-3)[Gal(b1-4)GlcNAc(b1-2)Man(a1-6)][Gal(b1-4)GlcNAc(b1-4)]Man(b1-4)GlcNAc(b1-4)[Fuc(a1-6)]GlcNAc
# Outline: as §1
# [11] = biological target: Gal(b1-4)GlcNAc(b1-2)Man(a1-3)[Gal(b1-4)GlcNAc(b1-2)Man(a1-6)][GlcNAc(b1-4)]Man(b1-4)GlcNAc(b1-4)[Fuc(a1-6)]GlcNAc
# Outline: as §1
# [12] = biological target: Gal(b1-4)GlcNAc(b1-2)Man(a1-3)[GlcNAc(b1-2)Man(a1-6)]Man(b1-4)GlcNAc(b1-4)GlcNAc
# Outline: as §1
# [13] = biological target: Gal(b1-4)GlcNAc(b1-2)Man(a1-3)[GlcNAc(b1-4)][Gal(b1-4)GlcNAc(b1-2)Man(a1-6)]Man(b1-4)GlcNAc(b1-4)GlcNAc
# Outline: as §1
# [14] = biological target: Gal(b1-4)GlcNAc(b1-2)Man(a1-3)[Man(a1-6)]Man(b1-4)GlcNAc(b1-4)GlcNAc
# Outline: as §1
# [15] = biological target: Gal(b1-4)GlcNAc(b1-2)Man(a1-6)Man(b1-4)GlcNAc(b1-4)GlcNAc
# Outline: as §1
# [16] = biological target: Gal(b1-4)GlcNAc(b1-2)Man(a1-6)[GlcNAc(b1-2)Man(a1-3)]Man(b1-4)GlcNAc(b1-4)GlcNAc
# Outline: as §1
# [17] = biological target: Gal(b1-4)GlcNAc(b1-2)Man(a1-6)[Man(a1-3)]Man(b1-4)GlcNAc(b1-4)GlcNAc
# Outline: as §1
# [18] = biological target: Gal(b1-4)GlcNAc(b1-2)[Gal(b1-4)GlcNAc(b1-4)]Man(a1-3)[Gal(b1-4)GlcNAc(b1-2)Man(a1-6)]Man(b1-4)GlcNAc(b1-4)GlcNAc
# Outline: as §1
# [19] = biological target: Gal(b1-4)GlcNAc(b1-2)[Gal(b1-4)GlcNAc(b1-4)]Man(a1-3)[Gal(b1-4)GlcNAc(b1-2)[Gal(b1-4)GlcNAc(b1-6)]Man(a1-6)]Man(b1-4)GlcNAc(b1-4)GlcNAc
# Outline: as §1
# [20] = biological target: Gal(b1-4)GlcNAc(b1-2)[Gal(b1-4)GlcNAc(b1-4)]Man(a1-3)[GlcNAc(b1-4)][Gal(b1-4)GlcNAc(b1-2)Man(a1-6)]Man(b1-4)GlcNAc(b1-4)GlcNAc
# Outline: as §1
# [21] = biological target: Gal(b1-4)GlcNAc(b1-2)[Gal(b1-4)GlcNAc(b1-4)]Man(a1-3)[GlcNAc(b1-4)][Gal(b1-4)GlcNAc(b1-2)[Gal(b1-4)GlcNAc(b1-6)]Man(a1-6)]Man(b1-4)GlcNAc(b1-4)GlcNAc
# Outline: as §1
# [22] = biological target: Gal(b1-4)GlcNAc(b1-2)[Gal(b1-4)GlcNAc(b1-6)]Man(a1-6)[Gal(b1-4)GlcNAc(b1-2)Man(a1-3)]Man(b1-4)GlcNAc(b1-4)GlcNAc
# Outline: as §1
# [23] = biological target: Gal(b1-4)GlcNAc(b1-2)[Gal(b1-4)GlcNAc(b1-6)]Man(a1-6)[Gal(b1-4)GlcNAc(b1-2)Man(a1-3)]Man(b1-4)GlcNAc(b1-4)[Fuc(a1-6)]GlcNAc
# Outline: as §1
# [24] = biological target: Gal(b1-4)GlcNAc(b1-2)[Gal(b1-4)GlcNAc(b1-6)]Man(a1-6)[GlcNAc(b1-4)][Gal(b1-4)GlcNAc(b1-2)Man(a1-3)]Man(b1-4)GlcNAc(b1-4)GlcNAc
# Outline: as §1
# [25] = biological target: Gal(b1-4)GlcNAc(b1-2)[Gal(b1-4)GlcNAc(b1-6)]Man(a1-6)[GlcNAc(b1-4)][Gal(b1-4)GlcNAc(b1-2)[Gal(b1-4)GlcNAc(b1-4)]Man(a1-3)]Man(b1-4)GlcNAc(b1-4)[Fuc(a1-6)]GlcNAc
# Outline: as §1
# [26] = biological target: Gal(b1-4)GlcNAc(b1-3)Gal(b1-3)GalNAc
# Outline: as §1
# [27] = biological target: Gal(b1-4)GlcNAc(b1-3)Gal(b1-3)GlcNAc
# Outline: as §1
# [28] = biological target: Gal(b1-4)GlcNAc(b1-3)Gal(b1-4)Glc
# Outline: as §1
# [29] = biological target: Gal(b1-4)GlcNAc(b1-3)Gal(b1-4)GlcNAc
# Outline: as §1
# [30] = biological target: Gal(b1-4)GlcNAc(b1-3)Gal(b1-4)GlcNAc(b1-2)Man(a1-3)[Gal(b1-4)GlcNAc(b1-3)Gal(b1-4)GlcNAc(b1-2)Man(a1-6)]Man(b1-4)GlcNAc(b1-4)GlcNAc
# Outline: as §1
binder,measurement,setting,value
"Epa1-NP-mutant-Y228A (Candida glabrata), Q6VBJ0 (protein) MILNPALFLNKCVCIYTTLILLLLTNGGYATSSNDISLASKDPTTFPLGCSPDITTPKKGLSMELYSYDFRKKGSYPCWDAAYLDPNYPRTGYKSHRLLAKVDGVTGNINFYYHATKGCTPQLGHLPASYNYPKPLTMTNFTMLLYGYFRPKVTGFHTFTISADDLLFVNFGAGNAFDCCRRDSSADHFGNYQAYAIWGSKTAKDELTVHLDAGVYYPIRLFYNNREADGALSFTFKTESNENTVSDFSEYFFSLDDTEEGCPGLISYDSSCASVKTSKIIGIDYHTETPNENLVPITKTIYHLGIPCTGTTTTPLCGSGFYDPLANKCVTINTSSTSSVTKTTSHTTSKEVSFHSSISSQKTLIPKSIPSPYGPIKSQSIPTEMETSSEISSSEYAFSDVISTPSHSPYTKKHSSLNSSSYTSTVIHSLTSYSISQGIFSTSLSEQNITSKSSTDKFSTATSMSNNITQSSIIISQFSTNNENYTTTSMHTSSDKISTETLNNSISTTTSILFSNSSTILKNNTTIISSDKDTHYHPVNPTIVCSTNKTEIICASITQPSISNSNNHWSSSVLKFNSTTVRSTLPSSAGSNETSINVPFSSSTESNTSTSSTSTSNSKMVRSTLPSSAGSNETSISVPFSSSTESNTSTSSTSTSNSKMVRSTLPSSAGSNETSINVPFSSSTESNTSTSSTSTSNSKTVRSTPFSSAGIIMTSLSQRNNKSASSYASSNSKCYNTADSCRKVHSTPSYLLTSSYTSEGVDYDCSLVSTKLKINDTNCVNNKHTTKSCLKTSVTTTIPTLEIKTARKSSSNTIGLHSYPTSSPNKSISSAPIIGYISSFKTIKTASPSYQTSDLTTITTITSLNNPGSTAVENTHESNDKSRKTSSNDISSKHSVIKETKDAVESSNKSHQTNTLKCSSIIIASSSHNSYESLGGTTLTLTLSKVYSPQNNDTLPFLEISEVNPSRTVLPESSKMMQYLTSTEERNKTARNTIATNIVSISTFHFEGEGNAIRMGYTQLLLMLIGIIVMNIGT",glycan array binding signal (z-score),[1],-0.146
same,glycan array binding signal (z-score),[2],0.267
same,glycan array binding signal (z-score),[3],2.93
same,glycan array binding signal (z-score),[4],0.003
same,glycan array binding signal (z-score),[5],0.654
same,glycan array binding signal (z-score),[6],-0.138
same,glycan array binding signal (z-score),[7],-0.23
same,glycan array binding signal (z-score),[8],-0.259
same,glycan array binding signal (z-score),[9],-0.248
same,glycan array binding signal (z-score),[10],-0.062
same,glycan array binding signal (z-score),[11],-0.176
same,glycan array binding signal (z-score),[12],-0.254
same,glycan array binding signal (z-score),[13],-0.279
same,glycan array binding signal (z-score),[14],-0.242
same,glycan array binding signal (z-score),[15],-0.173
same,glycan array binding signal (z-score),[16],-0.252
same,glycan array binding signal (z-score),[17],-0.227
same,glycan array binding signal (z-score),[18],0.397
same,glycan array binding signal (z-score),[19],0.67
same,glycan array binding signal (z-score),[20],-0.248
same,glycan array binding signal (z-score),[21],0.836
same,glycan array binding signal (z-score),[22],1.2
same,glycan array binding signal (z-score),[23],1.58
same,glycan array binding signal (z-score),[24],-0.223
same,glycan array binding signal (z-score),[25],0.803
same,glycan array binding signal (z-score),[26],-0.276
same,glycan array binding signal (z-score),[27],-0.136
same,glycan array binding signal (z-score),[28],-0.179
same,glycan array binding signal (z-score),[29],-0.202
same,glycan array binding signal (z-score),[30],0.007
